Experimental data: PubChem BioAssay AID624171 (National Center for Advancing Translational Sciences (NCATS), 2012)
The whole screen tested about 410,000 compounds, of which about 1,200 (0.29%) were called active. Inconclusive means that the source gave no clear call. Such entries were picked first, then a sample of the others. Calls follow the shape of the dose curve; as a rule, active = well fitted activation curve with a large enough effect; inconclusive = small, poorly fitted or top-dose-only effect; inactive = flat fitted curve, though single readings scatter. A potency beside an inconclusive call is a rough fit, not a confirmed value.

Assay: qHTS of Nrf2 Activators; also: nearly all actives have a fitted effect of over 65% in size
Conditions: AREc32 ARE-luciferase reporter (MCF7-derived line), luminescence, 24 h; series mostly up to 46.1 µM
Summary of the method: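 Cells of the AREc32 ARE-luciferase line are plated in OPTI-MEM containing 5% FBS and left overnight at 37 deg C. Compounds are pinned in, incubation continues 24 hr, and firefly luciferase signal is then measured.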
Potency is read from the fitted curve at half-maximal effect; tags tell the direction and shape of the fitted curve.

SMILES	Potency
COc1cc(/C=C/C(=O)c2ccc3c(c2)OCCO3)cc(Br)c1OCC(=O)N(C)C	inconclusive: 5.62 µM [activator, single point]
Cc1nc(SCC(=O)c2ccccc2)c(C#N)c(-c2ccco2)c1C(=O)NCc1ccco1	inconclusive: 20 µM [activator, single point]
COc1ccc(CNc2cc(C)nc3ncnn23)c(OC)c1	inactive
O=C(CN1C(=O)COc2ccc(Cl)cc21)Nc1ccc(N2CCOCC2)cc1	inactive
Cc1cc(C)nc(NC(=NCCc2c[nH]c3ccccc23)NC(=O)c2ccco2)n1	inactive
CC(=O)c1cccc(Nc2ccc(-c3ccccc3F)nn2)c1	inactive
CCC1Oc2ccccc2N(CC(=O)NCc2cc(OC)ccc2OC)C1=O (stereo not drawn)	inactive
Cc1ccc(/C=C(\C#N)C(=O)Nc2cccc(Cl)c2)o1	inconclusive: 8.91 µM [activator, partial curve, poor fit]
Oc1ccc(Nc2ncnc3ccccc23)cc1	inconclusive: 12.6 µM [activator, single point]
Cc1ccc(-c2nc3c4ccccc4n(CC(=O)NCc4ccc(F)cc4)c(=O)n3n2)cc1	inactive
Cc1nnc(SCC(=O)NCC2CCCO2)n1-c1ccccc1 (stereo not drawn)	inactive
COc1cccc(/C=C2\SC(=S)N(CCCC(=O)N3CCCC3)C2=O)c1	inconclusive: 10 µM [activator, partial curve]
Cn1c(SC2=CS(=O)(=O)c3ccccc32)nc2ccccc21	inconclusive: 0.631 µM [activator, full curve, poor fit]
Fc1ccc(N2CCN(c3nc(-c4ccco4)cc(C(F)(F)F)n3)CC2)cc1	inconclusive: 10 µM [activator, partial curve, poor fit]
Cc1nnc(SCC(=O)Nc2ccc(O)cc2)c2ccccc12	inconclusive: 28.2 µM [activator, single point]
C=CC[C@@H](CC(=O)N(CCO)Cc1ccccc1)C(=O)NC[C@H](OC(=O)[C@@H](CC=C)CC(=O)OC(C)(C)C)c1ccccc1	inactive
COC(=O)Cc1ccc2sc(-c3ccccc3)nc2c1	inconclusive: 3.55 µM [activator, single point]
CCc1ccc(NC(=O)N(Cc2c[nH]c3ccccc23)C2CCCCC2)cc1	inactive
Cc1ccc(C)c(NC(=O)CN(C)C(=O)c2ccc(-c3ccc(Cl)cc3)o2)c1	inactive
O=C(Oc1ccc(N2C(=O)CCC2=O)cc1)c1ccccc1Cl	inactive
CCOC(=O)CCNC(C)C1COc2ccccc2O1 (stereo not drawn)	inactive
CS(=O)(=O)c1ccc(N)c(SSc2cc(S(C)(=O)=O)ccc2N)c1	inconclusive: 20 µM [activator, single point]
COc1ccc(OC)c(C(=O)COC(=O)c2ccccc2O)c1	active: 12.6 µM
Cc1ccc(NC(=O)c2nc[nH]c2C(=O)NCCCCCNC(=O)OC(C)(C)C)cc1	inactive
O=C(Nc1ccc2nc3n(c(=O)c2c1)CCCCC3)c1cc([N+](=O)[O-])ccc1F	inconclusive: 5.62 µM [activator, single point]

SMILES	Potency
O=C(CCNc1ccc(F)c(Cl)c1)c1ccco1	inconclusive: 22.4 µM [activator, single point]
COC(=O)c1sc2nc(-c3ccco3)ccc2c1N	inconclusive: 2.82 µM [activator, full curve, poor fit]
O=C(Nc1nc(-c2ccco2)c(-c2ccco2)s1)c1ccco1	inconclusive: 12.6 µM [activator, partial curve, poor fit]
COc1cc(C(=O)ON=C2C3CC4CC(C3)CC2C4)cc(OC)c1OC	inactive
CC(C)(C)c1ccc2c(c1)OC(C(=O)N/N=C\c1ccc(-c3cccc(C(=O)O)c3)o1)CO2 (stereo not drawn)	inactive
COc1ccc(Oc2cnn(-c3ccccc3)c(=O)c2Br)cc1	inconclusive: 14.1 µM [activator, single point]
O=C(Nc1ccc(F)cc1)c1nc(S(=O)(=O)Cc2ccccc2)ncc1Cl	inconclusive: 3.98 µM [activator, single point]
Cc1ccnc(N2CCC(C(=O)Nc3cccc(C(F)(F)F)c3)CC2)n1	inactive
O=C(NC(=S)Nc1cccnc1Cl)c1ccco1	active: 12.6 µM
Cc1ccc(C(=O)OCc2nc3ccccc3s2)o1	active: 10 µM
Cc1ccc(-n2nc3cc(Cl)c(NC(=O)c4ccco4)cc3n2)cc1	inconclusive: 1.58 µM [activator, full curve, poor fit]
COc1ccccc1NC(CC(=O)c1ccccc1)C(=O)OCC(=O)c1ccc(Br)cc1 (stereo not drawn)	active: 22.4 µM
CC1CCCCC1NC(=O)COC(=O)c1c2c(nc3ccccc13)/C(=C/c1ccco1)CC2 (stereo not drawn)	inconclusive: 10 µM [activator, partial curve, poor fit]
CNC(=O)c1csc(-c2cccs2)n1	inconclusive: 10 µM [activator, partial curve]
COc1cccc2cc(C(=O)N3CCc4ccccc4C3)c(=O)oc12	inconclusive: 14.1 µM [activator, partial curve, poor fit]
CCc1nnc(NC(=O)c2nc(S(C)(=O)=O)ncc2Cl)s1	inconclusive: 25.1 µM [activator, single point]
O=C(NNC(=O)c1ccccc1F)c1ccc2[nH]c(=O)c(=O)[nH]c2c1	inconclusive: 22.4 µM [activator, single point]
Cc1ccn2c(Nc3ccc4c(c3)OCO4)c(-c3ccc(O)cc3)nc2c1	inconclusive: 11.2 µM [activator, partial curve, poor fit]
CN(C(=O)c1ccccc1)c1nccnc1C#N	inactive
O=C(Nc1ccc(Cl)c(Cl)c1)Nc1ccccn1	inconclusive: 2.82 µM [activator, full curve, poor fit]
COc1ccc(CNC(=O)c2[nH]c(C(F)(F)F)nc2-c2ccccc2)cc1OC	inactive
Cc1cc2oc(=O)cc(CN3CCCCC3)c2cc1C(C)C	inactive
CC(C)Oc1ccc(CNC(=O)c2ccc3nc(SCc4ccc(F)cc4)n(C)c3c2)cc1	inactive
CC[C@@H](C)[C@@H]1CN([C@@H](C)CN2CCC[C@H]2CN2C(N)=NC[C@H]2CC(C)C)C(=N)N1CCc1ccc(Cl)c(Cl)c1	inactive
O=C(O)c1ccccc1C(=O)N1N=C(c2ccccc2)CC1c1ccccc1O (stereo not drawn)	inconclusive: 17.8 µM [activator, single point]

SMILES	Potency
Cc1cc(O)c(N)c(C)c1Cl	inconclusive: 12.6 µM [activator, single point]
N/C(=N\OC(=O)c1ccco1)c1ccc(Br)cc1	inconclusive: 14.1 µM [activator, single point]
CCN(CC(=O)NCc1ccc(Cl)cc1)C(=O)/C=C/c1ccc(Cl)c([N+](=O)[O-])c1	inconclusive: 20 µM [activator, single point]
O=C(Nc1ccc(Cl)cc1)Nc1ccccc1C(=O)NCc1ccco1	inconclusive: 22.4 µM [activator, single point]
COCc1cc(C)nc2sc(C(=O)N3CCCC3)c(N)c12	inactive
COc1cc(/C=C/C(=O)c2ccc3c(c2)OCCO3)cc(OC)c1OC	inconclusive: 25.1 µM [activator, single point]
COC(=O)Cn1c(=NC(=O)c2ccc3c(c2)OCCO3)sc2ccccc21	inactive
CCN1C(=O)/C(=C\c2ccco2)C(C(=O)OC)=C1C	active: 10 µM
C(=C\c1ccco1)/c1ccc2ccccc2n1	inconclusive: 0.891 µM [activator, full curve, poor fit]
Cc1cc(C)nc(Sc2nc(Nc3ccccc3)nc(Sc3nc(C)cc(C)n3)n2)n1	inconclusive: 15.8 µM [activator, partial curve, poor fit]
O=[N+]([O-])c1ccc(S(=O)(=O)CC(CN2CCCCC2)N2CCCCC2)cc1 (stereo not drawn)	inactive
CC1CCCCN1c1c(S(=O)(=O)c2ccc(Cl)cc2)cnc2ccccc12 (stereo not drawn)	inactive
COc1cc(C(=O)N/N=C/c2ccc3c(c2)c2ccccc2n3C)ccc1O	inactive
c1ccc(-c2ccc3c(c2)NC(C2Nc4cc(-c5ccccc5)ccc4O2)O3)cc1 (stereo not drawn)	inconclusive: 3.16 µM [activator, full curve, poor fit]
O=C(NCc1ccco1)C1Cc2ccccc2CN1S(=O)(=O)c1ccccc1F (stereo not drawn)	inconclusive: 17.8 µM [activator, single point]
O=[N+]([O-])c1cccc(CON=Cc2ccccc2O)c1	inconclusive: 15.8 µM [activator, partial curve, poor fit]
O=C(Nc1cccs1)Nc1ccccc1Br	inconclusive: 5.62 µM [activator, partial curve]
CCOC(=O)Cc1csc(NC(=O)NC2(C(F)(F)F)Oc3ccccc3O2)n1	inconclusive: 22.4 µM [activator, single point]
CCCCC(CCCCl)C(=O)Nc1ccccc1 (stereo not drawn)	inactive
COC(=O)c1sccc1NC(=O)c1cc(C)on1	inconclusive: 3.16 µM [activator, full curve]
CCNC(=S)N/N=C1\C(=O)c2cccc3cccc1c23	inconclusive: 2.51 µM [activator, partial curve, poor fit]
CCSc1nnc(NC(=O)/C=C/c2ccco2)s1	inconclusive: 3.55 µM [activator, partial curve, poor fit]
COc1cc(C(=O)CCN2CCC(c3ccccc3)C2)cc(OC)c1OC (stereo not drawn)	inconclusive: 22.4 µM [activator, single point]
